# Source: a collection of fitness landscapes (doi:10.1126/science.1257360)
# The other results are listed elsewhere or left out.
# B1: PhoQ; a variant is named by its letters at X, in order, P23837 (parent)
# chain: MKKLLRLFFPLSLRVRFLLATAAVVLVLSLAYGMVALIGYSVSFDKTTFRLLRGESNLFYTLAKWENNKLHVELPENIDKQSPTMTLIYDENGQLLWAQRDVPWLMKMIQPDWLKSNGFHEIEADVNDTSLLLSGDHSIQQQLQEVREDDDDAEMTHSVAVNVYPATSRMPKLTIVVVDTIPVELKSSYMVWSWFIYVLSANLLLVIPLLWVAAWWSLRPIEALAKEVRELEEHNRELLNPATTRELTSLVRNLNRLLKSERERYDKYRTTLTDLTHSLKTPLXXLQXXLRSLRSEKMSVSDAEPVMLEQISRISQQIGYYLHRASMRGGTLLSRELHPVAPLLDNLTSALNKVYQRKGVNISLDISPEISFVGEQNDFVEVMGNVLDNACKYCLEFVEISARQTDEHLYIVVEDDGPGIPLSKREVIFDRGQRVDTLRPGQGVGLAVAREITEQYEGKIVAGESMLGGARMEVIFGRQHSAPKDE
# Variants of: B1
# Assay: enrichment ratio after two sorts for PhoP signalling (ratio (wild type AVST 3.29)); higher = more functional
# Conditions: with PhoP (E. coli)
row,Variant,enrichment ratio
1,GAAF,≤ 0.25
2,GWTM,≤ 0.25
3,LTIH,≤ 0.25
4,YLFP,≤ 0.25
5,LWIW,≤ 0.25
6,SPGF,≤ 0.25
7,EKFC,≤ 0.25
8,NGAY,≤ 0.25
9,FTTI,≤ 0.25
10,WYPE,≤ 0.25
11,DVWM,≤ 0.25
12,WPIY,≤ 0.25
13,DSAL,≤ 0.25
14,LNRF,0.814
15,QECW,≤ 0.25
16,LLVN,≤ 0.25
17,KMLN,≤ 0.25
18,LVGP,≤ 0.25
19,THHS,≤ 0.25
20,PLVK,≤ 0.25
21,HDAQ,≤ 0.25
22,PSLP,≤ 0.25
23,IWES,≤ 0.25
24,NIHS,≤ 0.25
25,KDCD,≤ 0.25
26,VPMG,≤ 0.25

row,Variant,enrichment ratio
1,IQNQ,≤ 0.25
2,KDLI,≤ 0.25
3,LVDS,≤ 0.25
4,SMNK,≤ 0.25
5,FIVS,≤ 0.25
6,IMNE,≤ 0.25
7,PLGL,≤ 0.25
8,WGWW,≤ 0.25
9,KMDH,≤ 0.25
10,PQPT,≤ 0.25
11,KYNW,≤ 0.25
12,SYQP,≤ 0.25
13,NMNK,≤ 0.25
14,EPTW,≤ 0.25
15,SGQP,≤ 0.25
16,GECR,≤ 0.25
17,WYLI,≤ 0.25
18,WLCR,≤ 0.25
19,MELC,10.6
20,HWIN,≤ 0.25
21,TLFN,≤ 0.25
22,QGWC,7.22
23,THKL,≤ 0.25
24,TLCP,≤ 0.25
25,FYNS,≤ 0.25
26,TLPQ,≤ 0.25

row,Variant,enrichment ratio
1,DTNL,≤ 0.25
2,YWIC,≤ 0.25
3,NPLH,≤ 0.25
4,HFPS,≤ 0.25
5,GNCM,11.7
6,VHAQ,≤ 0.25
7,RNAD,≤ 0.25
8,NFNP,≤ 0.25
9,SEPM,≤ 0.25
10,FIDS,≤ 0.25
11,VENV,≤ 0.25
12,RSEN,≤ 0.25
13,TDFY,≤ 0.25
14,ELCM,≤ 0.25
15,ELFW,≤ 0.25
16,CINL,≤ 0.25
17,FIGW,≤ 0.25
18,VIVD,≤ 0.25
19,YMVP,≤ 0.25
20,REPN,≤ 0.25
21,SSWG,≤ 0.25
22,EQYD,≤ 0.25
23,GSYF,≤ 0.25
24,WSVS,≤ 0.25
25,KYYM,≤ 0.25
26,RFYI,≤ 0.25

row,Variant,enrichment ratio
1,DCPS,≤ 0.25
2,MQNF,≤ 0.25
3,FCCS,≤ 0.25
4,LGYC,≤ 0.25
5,MFYN,≤ 0.25
6,TACC,13.6
7,IWYC,≤ 0.25
8,NHAH,≤ 0.25
9,RAKL,≤ 0.25
10,CLLT,≤ 0.25
11,VIWS,≤ 0.25
12,DDTV,≤ 0.25
13,MCIK,≤ 0.25
14,SRCL,6.4
15,IQWP,≤ 0.25
16,IWSR,≤ 0.25
17,DIYV,≤ 0.25
18,AGTP,≤ 0.25
19,YNSY,≤ 0.25
20,NKAC,≤ 0.25
21,QIWT,20.8
22,RVKG,≤ 0.25
23,KFSC,0.256
24,LFGG,≤ 0.25
25,SDAE,≤ 0.25
26,EPLG,≤ 0.25

row,Variant,enrichment ratio
1,VLCM,≤ 0.25
2,AELV,24.4
3,FWWG,≤ 0.25
4,ILIQ,≤ 0.25
5,IVYL,≤ 0.25
6,RNVW,≤ 0.25
7,MDTK,≤ 0.25
8,KCAR,≤ 0.25
9,KTYN,≤ 0.25
10,VTCY,≤ 0.25
11,FGDA,≤ 0.25
12,GNAN,≤ 0.25
13,HYSR,≤ 0.25
14,FPEA,≤ 0.25
15,HRKG,≤ 0.25
16,YNPK,≤ 0.25
17,INGC,≤ 0.25
18,YDGQ,≤ 0.25
19,TEIA,5.22
20,SWFK,≤ 0.25
21,NLLG,≤ 0.25
22,PPCK,≤ 0.25
23,NAHN,≤ 0.25
24,PLTK,≤ 0.25
25,DGGW,≤ 0.25
26,FTVR,≤ 0.25

row,Variant,enrichment ratio
1,VDFA,≤ 0.25
2,IRGW,≤ 0.25
3,YHKV,≤ 0.25
4,HHVK,≤ 0.25
5,GIGL,8.6
6,DAWT,≤ 0.25
7,WDRL,≤ 0.25
8,NYKV,≤ 0.25
9,PAVV,≤ 0.25
10,NQFE,≤ 0.25
11,VFPD,≤ 0.25
12,WFVH,≤ 0.25
13,ALTQ,8.14
14,PDLV,≤ 0.25
15,QDHT,≤ 0.25
16,WHPM,≤ 0.25
17,AQVG,12
18,YKTI,0.324
19,EAEC,≤ 0.25
20,SSGF,8.38
21,DPMT,≤ 0.25
22,FGNV,≤ 0.25
23,LRKY,≤ 0.25
